Laboratory results as given in patent US20190062402A1 (SHANGHAI KANDA BIOTECHNOLOGY, published 2019).

Biological target: T1, recombinant human BMP-2 protein (human, UniProt P12643 283-396)
T1 construct: Bought reagent; also called bone morphogenetic protein-2
T1 sequence (looked up): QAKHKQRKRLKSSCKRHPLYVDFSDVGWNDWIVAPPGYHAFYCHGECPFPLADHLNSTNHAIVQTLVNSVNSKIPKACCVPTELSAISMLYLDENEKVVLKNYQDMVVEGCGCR
Experiment: ELISA, BMP-2 coated on plate, ACVR1-Fc titrated, anti-human IgG Fc-AP detection
Description: Dilutions of the fusion protein (3× serial dilution) were prepared in binding solution of TBST with 1% BSA. The blocking solution was decanted, and 50 μl/well of the 3× serial dilution of the fusion protein was added. The plate was placed in thermostat at 37° C. for 1 hr. After the fusion protein solution was decanted, the ELISA plate was washed three times with TBST, and then 50 μl/well of the secondary antibody (alkaline phosphatase-conjugated goat-anti-human IgG Fc antibody, Jackson ImmuneResearch) was added to react in thremostat at 37° C. for 1 hr. The developing antibody was removed, and to the ELISA plate, 200 μl/well TBST wash solution was added. The plate was then placed on a horizontal rotator at 100 rpm for 5 minutes, after which, the wash solution was decanted. The process was repeated five times. To the ELISA plate, 50 μl/well antibody developing solution (PNPP) was added. The ELISA plate was placed in thermostat at 37° C., and was read at 405 nm.

- EC50: 420 nM
B1: ACVR1-Fc fusion protein (Fc fusion)
chain: MEDEKPKVNPKLYMCVCEGLSCGNEDHCEGQQCFSSLSINDGFHVYQKGCFQVYEQGKMTCKTPPSPGQAVECCQGDWCNRNITAQLPTKGKSFPGTQNFHLE[here human IgG1 Fc without letters]
notes: The signal peptide is left out here; also called ACVR1-Fc protein; the fusion protein
